Assay results taken from the supplement of paper PMC11417369.
± gives the standard deviation of the averaged measurements. This is one part of the list.

Each sequence was assayed on PfAP2-G AP2 domain (GST-tagged) (assay: gcPBM binding intensity (ln(normalized median fluorescence intensity)); higher = stronger DNA binding).
In short: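 DNA-binding domains from P. falciparum, fused to GST and produced in E. coli, were put on an Agilent 4 × 180k double-stranded probe array for 1 h in 1× PBS holding 1% milk, 0.2 mg/ml BSA, 0.5% salmon testes DNA and 0.03% Triton X-100. Probes were primer-extended, 36 bp long and drawn from intergenic genomic regions, with negative controls included. After Alexa488 anti-GST antibody detection and a 488 nm scan, binding intensity was set as the highest Masliner-normalised natural-log median intensity across replicate spots of either probe orientation.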

Sequence	gcPBM binding intensity (ln)
TTCTTTCTGTTTTATTTATAATAATTTATGATAAAA [CACACA_negctrl_site766]	10 ± 0.2
AAAATATTTATTACTTCACACATTATTGTATTTATA [CACACA_site5082]	9.86 ± 0.16
CATATATTATTATATGCACACATGAAAATATACAAA [CACACA_site2795]	10.2 ± 0.2
AAAGTTGTTACGAACATACACACGAACATACTCACG [CACACA_site604]	10.23 ± 0.042
TAGAATATCCCCTACACACCCAAATAATTTACAAAT [CACACA_site4825]	10.18 ± 0.049
GTATAACTTTTGCGCGTACACACATTTATCCTCTTT [CACACA_site208]	11.7 ± 0.86
TTTCTTTTTTTATAATCCACATTGGGAAAATCAAAA [TGCATGCA_negctrl_site159]	10.1 ± 0.37
ACGTATAATATGTACACACACATATATACAAAAAAA [CACACA_site917]	11.5 ± 1.1
TTTTTTTTTTTTTATTGTACTTATTTTTTTATGTTT [XGTACX_site7725]	11.4 ± 1.1
GTATTATATATATAGGTGCATATATATATATAAATA [GTGCAC_site9787]	9.96 ± 0.16
AAATATAAAGGATTAATATTATATATATATATATAT [XGTACX_negctrl_site211]	9.9 ± 0.42
TAAATAAATTTATACACACACACACGGATATAAATA [CACACA_site6532]	10.2 ± 0.15
TATAAATATTTATACACACACATATATTTATATATC [CACACA_site6366]	10.07 ± 0.092
ACACATACATATACATACACATTGTTTTCATGCATC [XGTACX_negctrl_site126]	10.22 ± 0.057
TATATGTGTCTACAGGTGCATATATCATATATTGCT	9.865 ± 0.007
ATTTTTTTTTTTTTTTTTTTTTTGTTTATACAAAAT [CACACA_negctrl_site1241]	9.71 ± 0.11
TATATACATACATGTAGTACCTAATTCGGTCCCGTA [XGTACX_site2702]	11.3 ± 0.71
TTTCATTTAGCTTTTACACACTATATATTATTGATT [CACACA_site16]	9.82 ± 0.11
TATGTATTTTTATGCACACATGCGTGGCTTATATAA [CACACA_site387]	10.2 ± 0.15
ATATTTTCTTTAAATTGTACATATTGTGATACAAAA [XGTACX_site5886]	11 ± 0.59
GTATTTATATGATTAACACACATATGGGTATTAATA [CACACA_site4853]	10.1 ± 0.16
TATACCTGAATTAAAAGTACATGTATATATTTTCCC [XGTACX_site3594]	11.2 ± 0.7

Sequence	gcPBM binding intensity (ln)
ATAATTTTTTAAGTGTGTACTAAAATGTGTATTTTA [XGTACX_site6227]	11.3 ± 0.85
ATAATATTAATATGTACACACCTTAATCCTTAAAAG [CACACA_site7640]	11.4 ± 0.86
TAACAAAAAGGGAACACATGCGCTCTTTATTTATTT [TGCATGCA_site620]	10.14 ± 0.064
TATAGAAGCATTCACACACACACATACATACACATA [CACACA_site1466]	10.1 ± 0.28
TTGCATTTTCTAGTAACACACAATTAGCGTTGCTGT [CACACA_site3594]	9.83 ± 0.028
AGAGAGAAAGCTATAACATGCAACAATTTTTAGAAC [TGCATGCA_site596]	9.79 ± 0.14
AAATTATTTATTTTATGTACATATTATTAAAGTTAA [XGTACX_site552]	11.3 ± 0.78
TATTATAGAAATTTAATGTTGGACAAAAAAATGAAA [CACACA_negctrl_site1351]	10.7 ± 0.48
TCTTAATATCGTTTCTCACACATATACAAACATAAA [CACACA_site5700]	10.2 ± 0.21
AATATATGAATTATATGTACATATAGATAAGTCACA [XGTACX_site7637]	11.1 ± 0.69
ATCTATATTTAATTTACACACAAAAAAAATTGTTGG [CACACA_site6582]	10.04 ± 0.064
AAAATGTGATATGTAAATATATATGTATGTATATAT [CACACA_negctrl_site1748]	9.825 ± 0.064
TAATGCATTTTCGCATGTACATATTTCTCTTTATAT [XGTACX_site8915]	11.1 ± 0.71
ATAAATGACAAATTAACACACATATATTATAGATAT [CACACA_site7770]	9.795 ± 0.049
TTTCTTTTTTTTTTTTTTTTTTTTTTTTTTTTTTTT [TGCATGCA_negctrl_site91]	11.2 ± 0.61
ACAAAAATAAACTATAGTACACACTTATTATTATGA [XGTACX_site5680]	11.1 ± 0.59
TCATTTTATTTTTTCACACACACATCTATATTTATA [CACACA_site7547]	10.1 ± 0.11
TAAGTAACTTTTAAAAGTACCCACACATATATATAT [XGTACX_site1231]	11.4 ± 0.77
TTTCCCTTGTTGTAAACATGCACAATATTTAGGTAT [TGCATGCA_site49]	10.1 ± 0.23
AAAAAAAAGAAAAACACACACATATATATATAGAAT [CACACA_site1006]	9.72 ± 0.12
TATATTTATAGGTATACACACATATGTATGTTATGT [CACACA_site7824]	10.2 ± 0.16
TTATGTATTTATATAAATATAAATATATATATATAT [CACACA_negctrl_site774]	9.63 ± 0.057

Sequence	gcPBM binding intensity (ln)
ATACATATAAATAATTGTACTATTAAAAAAGAACGT [XGTACX_site3751]	10.9 ± 0.52
TATATATATATATGTTGTACAAAAATGTAAAATATA [XGTACX_site7761]	11.1 ± 0.57
AAAAAAAAAAATACTCGTACATAAACCTATACATTT [XGTACX_site6494]	11 ± 0.47
CAATTAGCATTTTATTGTACATTTATAATCTATGAT [XGTACX_site1445]	10.8 ± 0.46
CTTAGAATATATGAATGTACTTTTTTTTTTAAATAA [XGTACX_site6048]	11.3 ± 0.95
ATAATATATTTTTGTAGTACACTTCTGGTAATATCG [XGTACX_site2402]	11.7 ± 1
AGTATACAGATATATACACACATATATATATATATA [CACACA_site4323]	10 ± 0.45
ATATATTATTTCTAGTGTACATACCCATATATAATA [XGTACX_site8902]	11.2 ± 0.69
AATCCACTTTTTTATGTTATACAATATAAATTAAAT [XGTACX_negctrl_site446]	10 ± 0.23
ATTTAAGAAAAAAGTTGTACTTATTTATTTTTATTT [XGTACX_site5561]	11.4 ± 0.91
GGCTAAAAGGGGCACACACACAAAAAAAAAAAAAAA [CACACA_site3288]	10.9 ± 0.86
ATAAATAAGATATATACACACATATCTATACATATT [CACACA_site6369]	9.74 ± 0.14
TAAAAAATAAATATATGTACATATTTATTTTTTTTT [XGTACX_site850]	11.2 ± 0.81
ATATTTTTTTTTTCGTGTACGCATAAATATATCTAA [XGTACX_site3360]	11.6 ± 0.95
ATTGAATTCCAACTGGTGCACCAGTAAGATTGAAAA [GTGCAC_site9895]	10.4 ± 0.2
TAGATAAACAAGAAATGTACAAACGTAAATATGTTC [XGTACX_site2373]	10.6 ± 0.29
GGAAACAAAAAATATATACACACTAAACATAAAAAA [CACACA_site20]	9.91 ± 0.071
TCATAGTAGAAACACACACACACACCCATATATATA [CACACA_site1737]	9.98 ± 0.13
AACGCACATATATTTATGTATATATATATATATATA [GTGCAC_negctrl_site478]	9.97 ± 0.42
GTTATTAAACAGAAAAGTACATATGTATATTAAAAT [XGTACX_site3724]	11.2 ± 0.76
TTATTAAATAAAATCATGCACACAATATATATTTTA [CACACA_site2496]	9.87 ± 0.099
TTATTACATAACAATATACACACTATTGATTAAAGA [CACACA_site2933]	9.82 ± 0.042

Sequence	gcPBM binding intensity (ln)
TAAAAAAAAAGAAGCTGTACTAAAAAATTTATATTA [XGTACX_site7408]	11.1 ± 0.81
ATAAATATGTAAAAAACATGCAAAAAATTAAAGACA [TGCATGCA_site912]	9.99 ± 0.057
ATATATATATAATTTGTACACACAAATATGCATATA [CACACA_site9136]	11.3 ± 0.88
AAGAAAAACAATGAGATAAAGAAGAGAAAATATGTC [TGCATGCA_negctrl_site415]	9.92 ± 0.21
AAATTCATAAAAATATTTTATAATTATATATAGAAT [TGCATGCA_negctrl_site343]	9.7 ± 0.042
GGGTTTTTTATTAATACATGCATGGAAACGCACTAT [TGCATGCA_site1000]	10.2 ± 0.28
AGTGGAATGTATGATTTTCATTCCTTAAAATTTTAA [GTGCAC_negctrl_site521]	9.76 ± 0.16
TATATATATGTAAATCGTACAAATTATATATATCAT [XGTACX_site2821]	10.9 ± 0.47
TATATCTCATAGTATACACACACACCCACCCACATA [CACACA_site8513]	10.5 ± 0.31
TAATTTTCTTTTTATCGTTTTTTTTTTTTTTTTTTT [XGTACX_negctrl_site432]	10.7 ± 0.71
CATTATGTTGTAAATACACACATACATATACATACA [CACACA_site8143]	10.2 ± 0.2
AATACTAAAAAGTGTACACATACATAAAAAATTGCA [CACACA_site5620]	11.6 ± 0.87
AAGAAAAAAGTTATTAGTACACATTATAATAAAAAG [XGTACX_site3527]	11.4 ± 0.72
TATTGATTTATAAACACACACTCGAAGATGTTTAAC [CACACA_site4760]	9.875 ± 0.007
GGGTATACAAATAAACGTACAAACTCATAAAAAAAA [XGTACX_site3191]	11.3 ± 0.7
ATAAAATGATAAATTTGTACACAAAAAAAAAAAAAA [XGTACX_site964]	11.2 ± 1
AAAATAAAATATTTCTGTACTTATAACTATTCTATA [XGTACX_site8007]	11.2 ± 0.71
CATATATAACAATTCTCACACATAAAAAAAAAAAAT [CACACA_site4564]	9.99 ± 0.28
TTAAAAAAATATAATACACACCAAAAATATGCACAT [CACACA_site5209]	10.2 ± 0.2
TAATAATTTATAATAGTGCATTTGATTTTAAAAATA	9.865 ± 0.035
TTTTTATGGTAAATAAAAATATCTCCCTCCTTAATT [CACACA_negctrl_site1352]	9.91 ± 0.18
ATATATATATATATATGTACATATATTTATTTATTG [XGTACX_site6267]	11.2 ± 0.63
